# Test results as given in the supplement of paper PMC8728848.
# The other results are listed elsewhere or left out.
# Experiments:
# Assay in all cases: glycan array binding signal (z-score within array); higher = stronger binding
# Details in all cases: glycan notation: IUPAC condensed, linker removed
# [1] = molecular target: Fuc(a1-2)[Gal(a1-3)]Gal(b1-4)GlcNAc(b1-2)Man(a1-3)[Fuc(a1-2)[Gal(a1-3)]Gal(b1-4)GlcNAc(b1-2)Man(a1-6)]Man(b1-4)GlcNAc(b1-4)GlcNAc
# Method in brief: (§1)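 Columns mapping to the same glycan were averaged after glycan names were converted to IUPAC-condensed notation. The data come from 3228 arrays in the Consortium for Functional Glycomics database, limited to those with an available protein sequence. Binding is reported as a within-array Z-score averaged across arrays of one protein sequence and across linkers.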
# [2] = molecular target: Fuc(a1-2)[Gal(a1-3)]Gal(b1-4)[Fuc(a1-3)]GlcNAc
# Method in brief: as §1
# [3] = molecular target: Fuc(a1-2)[Gal(a1-4)]Gal(b1-4)GlcNAc
# Method in brief: as §1
# [4] = molecular target: Fuc(a1-2)[GalNAc(a1-3)]Gal
# Method in brief: as §1
# [5] = molecular target: Fuc(a1-2)[GalNAc(a1-3)]Gal(b1-3)GlcNAc
# Method in brief: as §1
# [6] = molecular target: Fuc(a1-2)[GalNAc(a1-3)]Gal(b1-3)GlcNAc(b1-2)Man(a1-3)[Fuc(a1-2)[GalNAc(a1-3)]Gal(b1-3)GlcNAc(b1-2)Man(a1-6)]Man(b1-4)GlcNAc(b1-4)GlcNAc
# Method in brief: as §1
# [7] = molecular target: Fuc(a1-2)[GalNAc(a1-3)]Gal(b1-4)Glc
# Method in brief: as §1
# [8] = molecular target: Fuc(a1-2)[GalNAc(a1-3)]Gal(b1-4)GlcNAc
# Method in brief: as §1
# [9] = molecular target: Fuc(a1-2)[GalNAc(a1-3)]Gal(b1-4)GlcNAc(b1-2)Man(a1-3)[GalNAc(a1-3)[Fuc(a1-2)]Gal(b1-4)GlcNAc(b1-2)Man(a1-6)]Man(b1-4)GlcNAc(b1-4)GlcNAc
# Method in brief: as §1
# [10] = molecular target: Fuc(a1-2)[GalNAc(a1-3)]Gal(b1-4)GlcNAc(b1-3)Gal(b1-4)GlcNAc
# Method in brief: as §1
# [11] = molecular target: Fuc(a1-2)[GalNAc(a1-3)]Gal(b1-4)GlcNAc(b1-3)Gal(b1-4)GlcNAc(b1-3)Gal(b1-4)GlcNAc
# Method in brief: as §1
# [12] = molecular target: Fuc(a1-2)[GalNAc(a1-3)]Gal(b1-4)[Fuc(a1-3)]GlcNAc
# Method in brief: as §1
# [13] = molecular target: Fuc(a1-2)[GalNAc(a1-4)]Gal(b1-4)GlcNAc
# Method in brief: as §1
# [14] = molecular target: Fuc(a1-2)[GalNAc(b1-3)]Gal
# Method in brief: as §1
# Fuc(a1-3)GlcNAc = molecular target: Fuc(a1-3)GlcNAc
# Method in brief: as §1
# [15] = molecular target: Fuc(a1-3)[Gal(b1-4)]Glc6S
# Method in brief: as §1
# [16] = molecular target: Fuc(a1-3)[Gal(b1-4)]GlcNAc
# Method in brief: as §1
# [17] = molecular target: Fuc(a1-3)[Gal(b1-4)]GlcNAc(b1-2)Man(a1-3)[Fuc(a1-3)[Gal(b1-4)]GlcNAc(b1-2)Man(a1-6)]Man(b1-4)GlcNAc(b1-4)GlcNAc
# Method in brief: as §1
# [18] = molecular target: Fuc(a1-3)[Gal(b1-4)]GlcNAc(b1-2)Man(a1-6)[Gal(b1-4)GlcNAc(b1-2)Man(a1-3)]Man(b1-4)GlcNAc(b1-4)GlcNAc
# Method in brief: as §1
# [19] = molecular target: Fuc(a1-3)[Gal(b1-4)]GlcNAc(b1-3)Gal(b1-3)[Fuc(a1-4)]GlcNAc
# Method in brief: as §1
# [20] = molecular target: Fuc(a1-3)[Gal(b1-4)]GlcNAc(b1-4)Gal(b1-4)[Fuc(a1-3)]GlcNAc
# Method in brief: as §1
# [21] = molecular target: Fuc(a1-3)[Gal(b1-4)]GlcNAc(b1-4)Gal(b1-4)[Fuc(a1-3)]GlcNAc(b1-4)Gal(b1-4)[Fuc(a1-3)]GlcNAc
# Method in brief: as §1
# [22] = molecular target: Fuc(a1-3)[Gal(b1-4)]GlcNAc6S
# Method in brief: as §1
# [23] = molecular target: Fuc(a1-3)[Gal3S(b1-4)]Glc6S
# Method in brief: as §1
# [24] = molecular target: Fuc(a1-3)[Gal3S(b1-4)]GlcNAc
# Method in brief: as §1
# [25] = molecular target: Fuc(a1-3)[Gal3S(b1-4)]GlcNAc6S
# Method in brief: as §1
# [26] = molecular target: Fuc(a1-3)[GalNAc(b1-4)]GlcNAc
# Method in brief: as §1
# Fuc(a1-4)GlcNAc = molecular target: Fuc(a1-4)GlcNAc
# Method in brief: as §1
# Fuc(b1-3)GlcNAc = molecular target: Fuc(b1-3)GlcNAc
# Method in brief: as §1
# Gal(a1-2)Gal = molecular target: Gal(a1-2)Gal
# Method in brief: as §1
binder,measurement,setting,value
"Neuropilin-2 (Homo sapiens), O60462 (protein) MDMFPLTWVFLALYFSRHQVRGQPDPPCGGRLNSKDAGYITSPGYPQDYPSHQNCEWIVYAPEPNQKIVLNFNPHFEIEKHDCKYDFIEIRDGDSESADLLGKHCGNIAPPTIISSGSMLYIKFTSDYARQGAGFSLRYEIFKTGSEDCSKNFTSPNGTIESPGFPEKYPHNLDCTFTILAKPKMEIILQFLIFDLEHDPLQVGEGDCKYDWLDIWDGIPHVGPLIGKYCGTKTPSELRSSTGILSLTFHTDMAVAKDGFSARYYLVHQEPLENFQCNVPLGMESGRIANEQISASSTYSDGRWTPQQSRLHGDDNGWTPNLDSNKEYLQVDLRFLTMLTAIATQGAISRETQNGYYVKSYKLEVSTNGEDWMVYRHGKNHKVFQANNDATEVVLNKLHAPLLTRFVRIRPQTWHSGIALRLELFGCRVTDAPCSNMLGMLSGLIADSQISASSTQEYLWSPSAARLVSSRSGWFPRIPQAQPGEEWLQVDLGTPKTVKGVIIQGARGGDSITAVEARAFVRKFKVSYSLNGKDWEYIQDPRTQQPKLFEGNMHYDTPDIRRFDPIPAQYVRVYPERWSPAGIGMRLEVLGCDWTDSKPTVETLGPTVKSEETTTPYPTEEEATECGENCSFEDDKDLQLPSGFNCNFDFLEEPCGWMYDHAKWLRTTWASSSSPNDRTFPDDRNFLRLQSDSQREGQYARLISPPVHLPRSPVCMEFQYQATGGRGVALQVVREASQESKLLWVIREDQGGEWKHGRIILPSYDMEYQIVFEGVIGKGRSGEIAIDDIRISTDVPLENCMEPISAFAGENFKVDIPEIHEREGYEDEIDDEYEVDWSNSSSATSGSGAPSTDKEKSWLYTLDPILITIIAMSSLGVLLGATCAGLLLYCTCSYSGLSSRSCTTLENYNFELYDGLKHKVKMNHQKCCSEA",glycan array binding signal (z-score),[1],0.426
same,glycan array binding signal (z-score),[2],0.942
same,glycan array binding signal (z-score),[3],-0.019
same,glycan array binding signal (z-score),[4],-0.268
same,glycan array binding signal (z-score),[5],0.73
same,glycan array binding signal (z-score),[6],-0.324
same,glycan array binding signal (z-score),[7],-0.637
same,glycan array binding signal (z-score),[8],0.014
same,glycan array binding signal (z-score),[9],-0.112
same,glycan array binding signal (z-score),[10],0.079
same,glycan array binding signal (z-score),[11],0.497
same,glycan array binding signal (z-score),[12],0.753
same,glycan array binding signal (z-score),[13],-0.846
same,glycan array binding signal (z-score),[14],-0.222
same,glycan array binding signal (z-score),Fuc(a1-3)GlcNAc,-0.252
same,glycan array binding signal (z-score),[15],0.81
same,glycan array binding signal (z-score),[16],0.087
same,glycan array binding signal (z-score),[17],-0.38
same,glycan array binding signal (z-score),[18],-0.628
same,glycan array binding signal (z-score),[19],0.073
same,glycan array binding signal (z-score),[20],0.328
same,glycan array binding signal (z-score),[21],-0.508
same,glycan array binding signal (z-score),[22],0.78
same,glycan array binding signal (z-score),[23],6.67
same,glycan array binding signal (z-score),[24],0.282
same,glycan array binding signal (z-score),[25],1.64
same,glycan array binding signal (z-score),[26],-0.442
same,glycan array binding signal (z-score),Fuc(a1-4)GlcNAc,0.104
same,glycan array binding signal (z-score),Fuc(b1-3)GlcNAc,-0.508
same,glycan array binding signal (z-score),Gal(a1-2)Gal,0.8
